Data: the supplement of paper PMC7826260
The list shows a part of the results. Each Rep nickase domain was tested in vitro on the same pool of single strands for 1 h at 37 °C with 3 µM enzyme; only the middle of the 90-letter strands is printed. The score is log2 (uncut reads / reads without enzyme); strong cutting gives strongly negative numbers. There is no active / inactive call. The scaling is to total reads; values above 0 arise when much of the pool is cut.

Legend:
Assay in all cases: uncleaved DNA left, log2 of reads against the no-enzyme library (log2 ratio); higher = less cleavage (more negative = more Rep cleavage of the k-mer); sequences stand for … in CTCGTCCG…ACCGGAGA
[1] = test system: T1, Rep nickase domain of Muscovy duck circovirus
T1 sequence (residues 1-111, tag not shown): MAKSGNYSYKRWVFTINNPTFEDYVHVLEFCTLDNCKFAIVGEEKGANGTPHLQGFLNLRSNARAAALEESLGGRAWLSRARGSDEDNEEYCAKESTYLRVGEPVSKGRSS
Procedure: (§1)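 A pool of 90-nt single-stranded DNAs with seven random bases just before the constant AC of the nick site (name = the seven bases) was cut by 3 µM recombinant His6-SUMO-tagged Rep nickase domain (300 nM DNA, 50 mM HEPES pH 8.0, 50 mM NaCl, 1 mM MnCl2, 1 h, 37 °C, three replicates). Uncut DNA was amplified and sequenced.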

[2] = test system: T2, Rep nickase domain of banana bunchy top virus
T2 sequence (residues 1-94, tag not shown): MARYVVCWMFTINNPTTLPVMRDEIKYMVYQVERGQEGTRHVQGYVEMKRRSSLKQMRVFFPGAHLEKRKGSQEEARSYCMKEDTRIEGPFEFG
Procedure: as §1

[3] = test system: T3, Rep nickase domain of cabbage leaf curl virus
T3 sequence (residues 1-116, tag not shown): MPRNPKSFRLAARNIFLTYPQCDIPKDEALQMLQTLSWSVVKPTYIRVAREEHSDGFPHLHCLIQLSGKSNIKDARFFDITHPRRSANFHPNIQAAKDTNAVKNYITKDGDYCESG
Procedure: as §1

[4] = test system: T4, Rep nickase domain of chickpea chlorotic dwarf virus
T4 sequence (residues 1-124, tag not shown): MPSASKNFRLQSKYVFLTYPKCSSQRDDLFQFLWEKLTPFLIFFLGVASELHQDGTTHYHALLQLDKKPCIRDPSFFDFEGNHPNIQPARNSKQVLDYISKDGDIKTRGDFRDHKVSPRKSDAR
Procedure: as §1

[5] = test system: T5, Rep nickase domain of faba bean necrotic yellows virus
T5 sequence (residues 1-98, tag not shown): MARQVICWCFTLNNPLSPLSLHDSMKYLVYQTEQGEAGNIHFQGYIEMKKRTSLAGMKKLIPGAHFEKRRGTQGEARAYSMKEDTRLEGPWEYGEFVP
Procedure: as §1

[6] = test system: T6, Rep nickase domain of maize striate mosaic virus
T6 sequence (residues 1-117, tag not shown): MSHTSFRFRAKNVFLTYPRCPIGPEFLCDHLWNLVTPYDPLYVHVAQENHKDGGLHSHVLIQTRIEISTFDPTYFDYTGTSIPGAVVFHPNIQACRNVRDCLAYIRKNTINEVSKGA
Procedure: as §1

[7] = test system: T7, Rep nickase domain of porcine circovirus 2
T7 sequence (residues 2-116, tag not shown): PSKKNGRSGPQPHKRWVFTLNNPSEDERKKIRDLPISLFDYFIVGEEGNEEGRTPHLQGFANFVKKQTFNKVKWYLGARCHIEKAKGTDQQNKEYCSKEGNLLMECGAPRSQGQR
Procedure: as §1

[8] = test system: T8, Rep nickase domain of tomato golden mosaic virus
T8 sequence (residues 1-124, tag not shown): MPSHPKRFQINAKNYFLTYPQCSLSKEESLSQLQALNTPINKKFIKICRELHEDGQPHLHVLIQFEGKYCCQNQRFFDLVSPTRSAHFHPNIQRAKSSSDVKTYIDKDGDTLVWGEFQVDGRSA
Procedure: as §1

[9] = test system: T9, Rep nickase domain of tomato yellow leaf curl virus
T9 sequence (residues 1-136, tag not shown): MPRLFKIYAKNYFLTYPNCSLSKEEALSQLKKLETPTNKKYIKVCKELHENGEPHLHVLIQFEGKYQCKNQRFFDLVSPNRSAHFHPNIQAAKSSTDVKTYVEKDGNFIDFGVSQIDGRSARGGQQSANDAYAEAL
Procedure: as §1

[10] = test system: T10, Rep nickase domain of wheat dwarf virus
T10 sequence (residues 1-137, tag not shown): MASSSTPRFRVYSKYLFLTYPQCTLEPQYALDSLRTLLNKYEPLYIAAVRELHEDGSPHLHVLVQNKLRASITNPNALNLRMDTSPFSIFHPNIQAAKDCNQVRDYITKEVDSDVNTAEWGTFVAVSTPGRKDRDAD
Procedure: as §1

Row | Sequence | uncleaved DNA left (log2) [1] | uncleaved DNA left (log2) [2] | uncleaved DNA left (log2) [3] | uncleaved DNA left (log2) [4] | uncleaved DNA left (log2) [5] | uncleaved DNA left (log2) [6] | uncleaved DNA left (log2) [7] | uncleaved DNA left (log2) [8] | uncleaved DNA left (log2) [9] | uncleaved DNA left (log2) [10]
1 | CAGAGTA | 0.0185 | -0.168 | -0.0749 | -1.52 | -0.0125 | -0.463 | -1.8 | 0.0955 | 0.0257 | -0.0759
2 | CGTTTTG | -0.0255 | -0.0834 | -0.455 | -0.195 | 0.0925 | -0.736 | 0.0965 | -0.078 | 0.124 | 0.101
3 | CAGACCA | 0.0279 | -0.000652 | 0.0536 | -1.06 | 0.113 | 0.351 | -0.468 | 0.0677 | -0.0748 | 0.095
4 | ACCGTGA | -0.0223 | -0.0824 | -0.395 | -0.295 | -0.011 | -0.96 | 0.0505 | -0.101 | -0.207 | -0.131
5 | AGTCGTA | -0.0616 | -0.17 | -0.22 | -0.714 | -0.199 | -0.664 | -2.27 | -0.059 | -0.0597 | -0.13
6 | GGTCCCG | -0.0125 | 0.0603 | -0.326 | -0.378 | -0.0491 | -0.485 | -0.127 | 0.0201 | 0.0122 | 0.0801
7 | AGAGCGC | -0.0101 | 0.042 | -0.152 | 0.0291 | 0.124 | -0.67 | 0.154 | 0.0641 | 0.136 | -0.0214
8 | ATTTTCC | -1.04 | 0.0338 | 0.0499 | -0.386 | 0.0158 | -0.631 | -2.72 | 0.0534 | -0.00056 | 0.0253
9 | GTCGGGG | 0.06 | 0.13 | 0.649 | 0.984 | 0.0108 | 1.67 | 0.181 | 0.176 | 0.037 | 0.0239
10 | ATTACGT | -0.0802 | 0.0247 | 0.107 | -0.749 | 0.113 | -0.42 | -1.78 | 0.0293 | 0.103 | -0.0313
11 | ATCCAGC | -0.00292 | -0.0736 | -0.451 | -0.526 | -0.00498 | -0.991 | 0.176 | -0.0197 | -0.0341 | -0.0434
12 | ATGAGGC | 0.0932 | 0.0367 | 0.097 | 0.117 | -0.0338 | -0.78 | 0.176 | 0.00226 | 0.0605 | 0.00892
13 | CGCTCCG | -0.0454 | -0.207 | -0.915 | -0.295 | -0.225 | -0.979 | -0.0514 | -0.185 | -0.124 | -0.156
14 | CATATCC | 0.069 | 0.158 | 0.0457 | -0.0892 | -0.0563 | -0.485 | 0.051 | 0.0265 | 0.0901 | 0.149
15 | TACCCAA | -0.0952 | 0.0246 | -0.0959 | -1.52 | -0.128 | -0.414 | -1.26 | -0.0618 | 0.0293 | 0.107
